# The supplement of paper PMC10369915
# This is one part of the list. Rule as the data show it: active = 3.2 or more and inactive = the rest. The signal is at background level for most entries.
# B1: SIT1_HUMAN_169 (peptide)
# chain: SGPEPELYASVCAQT
# B2: SIT1_HUMAN_188 (peptide)
# chain: ASFPDQAYANSQPAA
# B3: SIT1_HUMAN_90 (peptide)
# chain: SVEEVPLYGNLHYLQ
# B4: SKAP1_HUMAN_142 (peptide)
# chain: VSRGLFYYYANEKSK
# B5: SKAP1_HUMAN_142_YA (peptide)
# chain: VSRGLFAYAANEKSK
# B6: SKAP1_HUMAN_271 (peptide)
# chain: EKEEEDIYEVLPDEE
# B7: SKAP2_HUMAN_197 (peptide)
# chain: SAPDKRIYQFTAASP
# B8: ATXN2L_HUMAN_744 (peptide)
# chain: VPGQQGKYRGAKGSL
# B9: SKT_HUMAN_244_YA (peptide)
# chain: KDESRNVYAELNDVR
# B10: SKT_HUMAN_393 (peptide)
# chain: MYRNEGFYADPYLYH
# B11: SLAF5_HUMAN_279 (peptide)
# chain: AASKKTIYTYIMASR
# B12: SLAP1_HUMAN_273 (peptide)
# chain: SFFSSPPYFEDGGGG
# B13: SMCA1_HUMAN_954 (peptide)
# chain: FHQLRIQYGTSKGKN
# B14: SNAPN_HUMAN_129 (peptide)
# chain: AMLDSGIYPPGSPGK
# B15: SNCA_HUMAN_136_YA (peptide)
# chain: SEEGAQDYEPEAGGG
# B16: SOCS3_HUMAN_221 (peptide)
# chain: IREFLDQYDAPLGGG
# B17: SPRE2_HUMAN_231_YA (peptide)
# chain: WMTGAEDYRHAPVRG
# B18: SPRY2_HUMAN_55 (peptide)
# chain: AIRNTNEYTEGPTVV
# B19: SPT6H_HUMAN_1515 (peptide)
# chain: FRWFKDHYQDPVPGI
# B20: SPTAN1_HUMAN_1073 (peptide)
# chain: MKQVEELYHSLLELG
# B21: SPTB2_HUMAN_1805 (peptide)
# chain: TQILAASYELHKFYH
# B22: SPTC1_HUMAN_164_YA (peptide)
# chain: KTEEAIIYSAGFATI
# B23: SPTN1_HUMAN_1176 (peptide)
# chain: AVQQQEVYGMMPRDE
# B24: SRC_HUMAN_187 (peptide)
# chain: SETTKGAYCLSVSDF
# B25: SRC_HUMAN_338 (peptide)
# chain: VVSEEPIYIVTEYMS
# B26: SRC_HUMAN_530 (peptide)
# chain: FTSTEPQYQPGENLG
# B27: SRC8_HUMAN_446 (peptide)
# chain: GTEPEPVYSMEAADY
# B28: SRC8_HUMAN_446_YA (peptide)
# chain: GTEPEPVYSMEAADA
# B29: SRC8_HUMAN_453 (peptide)
# chain: YSMEAADYREASSQQ
# B30: SRC8_HUMAN_453_YA (peptide)
# chain: ASMEAADYREASSQQ
# B31: SRC8_HUMAN_470 (peptide)
# chain: AYATEAVYESAEAPG
# B32: SRC8_HUMAN_470_YA (peptide)
# chain: AAATEAVYESAEAPG
# B33: SRC8_HUMAN_489 (peptide)
# chain: EDSTYDEYENDLGIT
# B34: SRP14_HUMAN_27_YA (peptide)
# chain: CRTSGSVYITLKKAD
# B35: SRRM2_HUMAN_145 (peptide)
# chain: AFGISDSYVDGSSFD
# B36: SRRT_HUMAN_8 (peptide)
# chain: MGDSDDEYDRRRRDK
# Experiments:
# Test in all cases: enrichment score (SH2-bound / input frequency) (ratio); bacterial display of known human phosphotyrosine sites (pTyr-Var adds point mutants) read by sequencing; higher = stronger binding; tyrosines were phosphorylated by kinases first
# Conditions in all cases: peptide library: Human pTyr
# SHP2 C-SH2 domain E139D = molecular target: SHP2 C-SH2 domain E139D
# [1] = molecular target: SHP2 C-SH2 domain wild-type
# SHP2 N-SH2 domain L43F = molecular target: SHP2 N-SH2 domain L43F
# SHP2 N-SH2 domain T42A = molecular target: SHP2 N-SH2 domain T42A
# SHP2 N-SH2 domain T52S = molecular target: SHP2 N-SH2 domain T52S
# [2] = molecular target: SHP2 N-SH2 domain wild-type
# 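Also: displayed peptides selected on beads carrying the immobilized SH2 domain, with library peptides lacking any tyrosine serving as negative controls.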
Binder,enrichment score (SHP2 C-SH2 domain E139D),enrichment score [1],enrichment score (SHP2 N-SH2 domain L43F),enrichment score (SHP2 N-SH2 domain T42A),enrichment score (SHP2 N-SH2 domain T52S),enrichment score [2]
B1,inactive: 1.96,inactive: 1.14,inactive: 1.71,inactive: 1.19,inactive: 1.61,inactive: 1.23
B2,inactive: 0.62,inactive: 0.538,inactive: 0.565,inactive: 0.643,inactive: 0.799,inactive: 0.557
B3,inactive: 0.857,inactive: 0.793,inactive: 0.661,inactive: 0.685,inactive: 0.773,inactive: 0.845
B4,inactive: 1.74,inactive: 2.34,inactive: 1.75,inactive: 2.13,inactive: 1.93,inactive: 2.74
B5,inactive: 1.37,inactive: 1.17,inactive: 0.887,inactive: 1.18,inactive: 1.32,inactive: 1.4
B6,inactive: 1.12,inactive: 1.13,inactive: 0.85,inactive: 1.19,inactive: 1.09,inactive: 1.31
B7,inactive: 1.01,inactive: 0.785,inactive: 0.818,inactive: 0.856,inactive: 0.882,inactive: 1.01
B8,inactive: 1.03,inactive: 1.12,inactive: 1,inactive: 0.911,inactive: 0.937,inactive: 1.12
B9,inactive: 0.989,inactive: 0.817,inactive: 0.824,inactive: 0.819,inactive: 0.771,inactive: 0.856
B10,inactive: 0.928,inactive: 0.948,inactive: 0.917,inactive: 0.855,inactive: 1.07,inactive: 0.99
B11,inactive: 1.89,active: 3.94,inactive: 1.73,active: 3.26,inactive: 2.83,inactive: 2.74
B12,inactive: 0.986,inactive: 0.73,inactive: 0.688,inactive: 0.629,inactive: 1.05,inactive: 0.796
B13,inactive: 2.45,inactive: 2.16,inactive: 1.87,inactive: 2.19,inactive: 2.18,inactive: 2.74
B14,inactive: 0.475,inactive: 0.542,inactive: 0.538,inactive: 0.5,inactive: 0.589,inactive: 0.497
B15,inactive: 1.49,inactive: 0.958,inactive: 1.46,inactive: 1.01,inactive: 1.16,inactive: 0.979
B16,inactive: 0.89,inactive: 0.464,inactive: 0.76,inactive: 0.656,inactive: 0.709,inactive: 0.501
B17,inactive: 0.73,inactive: 0.615,inactive: 0.752,inactive: 0.747,inactive: 0.876,inactive: 0.733
B18,inactive: 0.621,inactive: 0.658,inactive: 0.805,inactive: 0.621,inactive: 0.71,inactive: 0.754

Binder,enrichment score (SHP2 C-SH2 domain E139D),enrichment score [1],enrichment score (SHP2 N-SH2 domain L43F),enrichment score (SHP2 N-SH2 domain T42A),enrichment score (SHP2 N-SH2 domain T52S),enrichment score [2]
B19,inactive: 1.92,inactive: 1.79,inactive: 1.75,inactive: 1.27,inactive: 1.55,inactive: 2.12
B20,inactive: 0.609,inactive: 0.56,inactive: 0.693,inactive: 0.652,inactive: 0.686,inactive: 0.735
B21,inactive: 1.73,inactive: 2.04,inactive: 1.92,inactive: 1.62,inactive: 2.01,inactive: 2.74
B22,inactive: 1.51,inactive: 1.32,inactive: 1.32,inactive: 1.02,inactive: 1.76,inactive: 1.69
B23,inactive: 0.696,inactive: 0.586,inactive: 0.579,inactive: 0.547,inactive: 0.961,inactive: 0.648
B24,inactive: 1.3,inactive: 1.19,inactive: 0.96,inactive: 1.07,inactive: 1.14,inactive: 1.22
B25,inactive: 1.5,inactive: 1.33,inactive: 1.34,inactive: 0.988,inactive: 1.39,inactive: 1.42
B26,inactive: 0.565,inactive: 0.555,inactive: 0.574,inactive: 0.487,inactive: 0.546,inactive: 0.468
B27,inactive: 0.969,inactive: 0.88,inactive: 0.878,inactive: 0.837,inactive: 0.749,inactive: 0.806
B28,inactive: 1.02,inactive: 0.958,inactive: 1,inactive: 0.93,inactive: 1.1,inactive: 1.05
B29,inactive: 0.759,inactive: 0.631,inactive: 0.57,inactive: 0.625,inactive: 0.628,inactive: 0.833
B30,inactive: 0.792,inactive: 0.484,inactive: 0.566,inactive: 0.586,inactive: 0.74,inactive: 0.818
B31,inactive: 0.823,inactive: 0.522,inactive: 0.892,inactive: 0.604,inactive: 0.635,inactive: 0.74
B32,inactive: 0.858,inactive: 0.772,inactive: 0.981,inactive: 0.675,inactive: 0.844,inactive: 1.05
B33,inactive: 1.17,inactive: 1.27,inactive: 1.08,inactive: 1.37,inactive: 1.1,inactive: 1.35
B34,inactive: 1.84,inactive: 1.68,inactive: 1.21,inactive: 1.41,inactive: 1.51,inactive: 1.95
B35,inactive: 0.701,inactive: 0.49,inactive: 0.576,inactive: 0.599,inactive: 0.492,inactive: 0.47
B36,inactive: 0.921,inactive: 0.69,inactive: 0.764,inactive: 0.866,inactive: 0.878,inactive: 0.87
